In PubChem BioAssay (NCATS):
Inconclusive results, whose numbers are uncertain, are shown with a selection of clear calls. Potencies of inconclusive entries are left out as doubtful fits. Calls of active or inactive are those of the source. Calls come from the whole dose curve; as a rule, active = well fitted inhibition curve with a large enough effect; inconclusive = small, poorly fitted or top-dose-only effect; inactive = no such curve, though single readings can be large or run the other way.

Experiment: BET inhibitor-based combinations targeting novel dependencies in MECOM-rearranged (r) AML: MV-4-11 cell line (AID 2202233); note: nearly all actives have a fitted effect of over 45% in size
Details: MV-4-11 AML viability, CellTiter-Glo luminescence, 48 h; series mostly up to 46 µM
In short: (§1)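 Using pin-tool transfer, drugs were added in 11 doses to cells (500/well), incubated 48 hr, and assessed with CellTiter-Glo. Z-AUC is a mean-centring transformation applied separately to each screened line.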
Potency is the fitted concentration of half-maximal effect; tags give direction and shape of the fitted curve.

Row | SMILES | Potency
1 | Cc1cc(C2CCCCC2)n(O)c(=O)c1 | active: 4.17 µM
2 | CC(C)NC[C@@H](C(=O)N1CCN(c2ncnc3c2[C@H](C)C[C@H]3O)CC1)c1ccc(Cl)cc1 | inconclusive [inhibitor, partial curve]
3 | CN(C)c1ccccc1CN1CCCN(Cc2ccccc2N(C)C)C1c1ccncc1 | inconclusive [inhibitor, full curve, poor fit]
4 | O=C(O)CCC=CCC[C@@H]1[C@H](N2CCCCC2)[C@@H](O)C[C@@H]1OCc1ccc(-c2ccccc2)cc1 | inactive
5 | COc1ccc(C2CC(c3ccccc3)=NN2c2ccc(S(N)(=O)=O)cc2)cc1 (configuration not stated) | inconclusive [inhibitor, single point]
6 | CN(C(=O)c1c(O)c2ccccc2n(C)c1=O)c1ccccc1 | inactive
7 | COc1cc2nccc(Oc3ccc(NC(=O)NC4CC4)c(Cl)c3)c2cc1C(N)=O | active: 2.09 µM
8 | COc1ccc(C(=O)CC2(O)C(=O)Nc3c(Cl)ccc(Cl)c32)cc1 (configuration not stated) | inactive
9 | O=C(COCC(=O)N1CCN(C(c2ccccc2)c2ccccc2)CC1)Nc1ccc(Cl)cc1C(=O)O | inactive
10 | COc1cc([C@@H](CC(=O)O)c2ccc(C)c(CN3C[C@@H](C)Oc4ccccc4S3(=O)=O)c2)cc2nnn(C)c12 | inconclusive [inhibitor, full curve]
11 | COc1c(Cl)cc2c([nH]c3cnccc32)c1NC(=O)c1cccnc1C | inconclusive [inhibitor, partial curve]
12 | CCOC(=O)c1ccc(OC(=O)CCCCCN=C(N)N)cc1 | inconclusive [inhibitor, full curve, poor fit]
13 | N#Cc1c(N(CC(=O)O)CC(=O)O)sc(C(=O)O)c1CC(=O)O | inactive

Experiment: BET inhibitor-based combinations targeting novel dependencies in MECOM-rearranged (r) AML: HNT-34 cell line (AID 2202234); note: nearly all actives have a fitted effect of over 35% in size
Details: HNT-34 AML viability, CellTiter-Glo luminescence, 48 h; series mostly up to 46 µM
In short: as §1

Row | SMILES | Potency
14 | CC(C)NC[C@@H](C(=O)N1CCN(c2ncnc3c2[C@H](C)C[C@H]3O)CC1)c1ccc(Cl)cc1 | inconclusive [inhibitor, partial curve]
15 | CN(C)c1ccccc1CN1CCCN(Cc2ccccc2N(C)C)C1c1ccncc1 | inactive
16 | O=C(O)CCC=CCC[C@@H]1[C@H](N2CCCCC2)[C@@H](O)C[C@@H]1OCc1ccc(-c2ccccc2)cc1 | inconclusive [inhibitor, partial curve, poor fit]
17 | COc1ccc(C2CC(c3ccccc3)=NN2c2ccc(S(N)(=O)=O)cc2)cc1 (configuration not stated) | inconclusive [inhibitor, partial curve, poor fit]
18 | COc1cc2nccc(Oc3ccc(NC(=O)NC4CC4)c(Cl)c3)c2cc1C(N)=O | active: 9.34 µM
19 | COc1ccc(C(=O)CC2(O)C(=O)Nc3c(Cl)ccc(Cl)c32)cc1 (configuration not stated) | inconclusive [inhibitor, full curve]
20 | COc1c(Cl)cc2c([nH]c3cnccc32)c1NC(=O)c1cccnc1C | inconclusive [inhibitor, single point]
21 | CCOC(=O)c1ccc(OC(=O)CCCCCN=C(N)N)cc1 | inactive
22 | N#Cc1c(N(CC(=O)O)CC(=O)O)sc(C(=O)O)c1CC(=O)O | inactive
